# Measured values taken from the BET-seq Pho4 binding data (Le et al. 2018).
# The other results are listed elsewhere or left out. Values were computed here from the reads of four pooled replicates and scatter widely.
# Molecular target: T1, Pho4 (S. cerevisiae) (UniProt P07270)
# T1 sequence: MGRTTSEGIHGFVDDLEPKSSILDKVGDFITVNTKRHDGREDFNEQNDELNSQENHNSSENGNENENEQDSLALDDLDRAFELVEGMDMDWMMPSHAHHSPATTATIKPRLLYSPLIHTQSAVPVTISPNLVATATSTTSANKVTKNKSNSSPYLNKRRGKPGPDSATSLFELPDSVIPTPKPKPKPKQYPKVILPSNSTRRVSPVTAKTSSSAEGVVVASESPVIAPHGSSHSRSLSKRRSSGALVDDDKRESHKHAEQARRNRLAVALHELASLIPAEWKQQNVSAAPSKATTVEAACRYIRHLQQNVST
# Assay: relative binding free energy (BET-seq); higher = weaker binding
# Settings: reference: library average
row,Sequence,relative binding free energy
1,TGGCCCACGTGTTGTG,-0.2 kcal/mol
2,TGTATCACGTGTGGAG,0.25 kcal/mol
3,GTATTCACGTGTGTGA,0.34 kcal/mol
4,GTTGACACGTGTTGCG,0.23 kcal/mol
5,GGTGTCACGTGACTAT,0.22 kcal/mol
6,AAGGTCACGTGCATGG,0.15 kcal/mol
7,TAATTCACGTGGGCAG,0.22 kcal/mol
8,ATGTTCACGTGAGTAC,0.26 kcal/mol
9,GCATTCACGTGAGAGT,0.68 kcal/mol
10,GGAGCCACGTGTTGCG,0.13 kcal/mol
11,TCAGTCACGTGTTATG,0.14 kcal/mol
12,TTGGACACGTGGGATT,0.01 kcal/mol
13,AATGGCACGTGAAGGT,0.23 kcal/mol
14,TGGGGCACGTGGCTTG,-0.13 kcal/mol
15,CTGTGCACGTGAATTT,0.28 kcal/mol
16,AAAGTCACGTGGGGAG,-0.01 kcal/mol
17,GTCAGCACGTGTTTGG,-0.02 kcal/mol
18,GGTGGCACGTGTGGAT,-0.07 kcal/mol
19,TGATACACGTGCGGGT,0 kcal/mol
20,GGGGGCACGTGGGAAA,-0.06 kcal/mol
21,GTATACACGTGCGTTT,0.21 kcal/mol
22,TGTTTCACGTGCGGAA,0.3 kcal/mol
23,AGGGGCACGTGTGTAC,-0.14 kcal/mol
24,GACGGCACGTGATGTT,0.03 kcal/mol
25,TTTTTCACGTGAGGAT,0.38 kcal/mol
26,TCAGGCACGTGATTAT,0.1 kcal/mol

row,Sequence,relative binding free energy
1,ATGCACACGTGAGTGG,0.08 kcal/mol
2,GGTAGCACGTGGGATT,-0.08 kcal/mol
3,TTCGACACGTGTCTGG,0.16 kcal/mol
4,TAGTGCACGTGTGTTA,0 kcal/mol
5,AAAATCACGTGTATGG,0.11 kcal/mol
6,TGTTTCACGTGCAGGA,0.11 kcal/mol
7,TCGGTCACGTGAAAGT,0.51 kcal/mol
8,TTAGGCACGTGTACTT,-0.1 kcal/mol
9,TTTTACACGTGGTTGG,0.17 kcal/mol
10,TGGTGCACGTGGACTA,-0.1 kcal/mol
11,AGCGCCACGTGGGGAG,-0.27 kcal/mol
12,AATCGCACGTGTATGT,0 kcal/mol
13,ATGTGCACGTGGATGA,-0.19 kcal/mol
14,ACAGGCACGTGTAAGG,0.11 kcal/mol
15,GGAGACACGTGGTTGA,-0.14 kcal/mol
16,TATTTCACGTGGATTT,0.27 kcal/mol
17,TTTGACACGTGGGTTG,-0.05 kcal/mol
18,TGGAACACGTGACGGG,0.25 kcal/mol
19,AATGTCACGTGGCTTT,0.07 kcal/mol
20,TACGTCACGTGTAGTG,0.06 kcal/mol
21,AATTTCACGTGGTGGC,0.27 kcal/mol
22,TAGGGCACGTGTTACG,-0.14 kcal/mol
23,ATTATCACGTGGGTGA,0.08 kcal/mol
24,TGTTGCACGTGCTGTG,-0.01 kcal/mol
25,ATGTTCACGTGGACTG,0.13 kcal/mol
26,AAATGCACGTGTTTGT,0 kcal/mol

row,Sequence,relative binding free energy
1,ATAATCACGTGGGTTT,0 kcal/mol
2,GTGTACACGTGGGGAT,-0.01 kcal/mol
3,TCTAGCACGTGGGTAA,-0.17 kcal/mol
4,GGGGCCACGTGTGAGT,0.03 kcal/mol
5,ATTACCACGTGAGTTT,0.29 kcal/mol
6,CAGAGCACGTGTAGGG,-0.2 kcal/mol
7,ATGTTCACGTGCGAGA,0.31 kcal/mol
8,GTTTGCACGTGGACGA,0.06 kcal/mol
9,GGTTGCACGTGTGGGT,0.09 kcal/mol
10,ATAGGCACGTGGCAGA,-0.17 kcal/mol
11,GACAGCACGTGTGTGG,0.11 kcal/mol
12,TATCACACGTGTATGT,0 kcal/mol
13,ATGGTCACGTGGAATA,0.13 kcal/mol
14,TATATCACGTGAAGGC,0.36 kcal/mol
15,GGTGACACGTGAAGAA,0.35 kcal/mol
16,GTCTTCACGTGTAGAT,0.35 kcal/mol
17,TGTGGCACGTGACGGG,0.09 kcal/mol
18,TATATCACGTGTTTAT,0.11 kcal/mol
19,AGTGTCACGTGCGTGG,-0.09 kcal/mol
20,CATTTCACGTGAGATG,0.62 kcal/mol
21,TTTTTCACGTGTAGGA,0.34 kcal/mol
22,GTCGTCACGTGTTAGA,0.1 kcal/mol
23,GTAAGCACGTGTAGGC,-0.08 kcal/mol
24,GGGTGCACGTGGGACT,-0.15 kcal/mol
25,GATAGCACGTGGGGGA,-0.26 kcal/mol
26,ATATTCACGTGTGTAA,0.22 kcal/mol

row,Sequence,relative binding free energy
1,TAGAGCACGTGTGGTC,-0.25 kcal/mol
2,TGCTTCACGTGTGTAT,0.13 kcal/mol
3,CATTGCACGTGTGATG,0.09 kcal/mol
4,AGGGTCACGTGGCCCG,0.06 kcal/mol
5,TATAACACGTGGTTAT,-0.22 kcal/mol
6,TGGTTCACGTGAGTCT,0.34 kcal/mol
7,TGTCTCACGTGGGACA,0.34 kcal/mol
8,TATATCACGTGAGGAT,0.37 kcal/mol
9,GTGGCCACGTGTGCGG,-0.06 kcal/mol
10,TGGTACACGTGTTGCT,0.13 kcal/mol
11,AGTATCACGTGGACAG,0.11 kcal/mol
12,TATGTCACGTGGTATA,0.01 kcal/mol
13,ATAATCACGTGAGGTA,0.36 kcal/mol
14,TAAAGCACGTGAATGG,0.37 kcal/mol
15,GGGAGCACGTGGGAGG,-0.11 kcal/mol
16,GGTTGCACGTGTCGTG,0.08 kcal/mol
17,ACCGGCACGTGGGAGG,-0.09 kcal/mol
18,TGATTCACGTGGAGGT,0.39 kcal/mol
19,GGTTTCACGTGTAGTC,0.25 kcal/mol
20,GTTGGCACGTGAGTCG,0.11 kcal/mol
21,TGGTACACGTGGAAAT,0.2 kcal/mol
22,ATTGACACGTGTTAGG,0 kcal/mol
23,CGCTTCACGTGTGAGG,0.17 kcal/mol
24,GTGGCCACGTGCGGAG,-0.16 kcal/mol
25,CGCGGCACGTGAAGTA,0.21 kcal/mol
26,TGGGTCACGTGCGGTT,0.1 kcal/mol

row,Sequence,relative binding free energy
1,GAAGGCACGTGTTAGC,0.04 kcal/mol
2,TAAGCCACGTGTTTTG,0.03 kcal/mol
3,AAAGCCACGTGGAGGG,-0.15 kcal/mol
4,GGGTTCACGTGGTGAC,0.33 kcal/mol
5,CTGGCCACGTGGTGTT,-0.23 kcal/mol
6,CGTGACACGTGCAGGG,-0.06 kcal/mol
7,GGAGGCACGTGAGATG,0.22 kcal/mol
8,GTGTTCACGTGTTTGA,0.24 kcal/mol
9,TGGTTCACGTGTTTGG,0.25 kcal/mol
10,GGGTGCACGTGGCAAG,-0.05 kcal/mol
11,AGTGTCACGTGTGCAG,0 kcal/mol
12,GGTCTCACGTGTGATA,0.19 kcal/mol
13,TCGTGCACGTGGGCGC,-0.16 kcal/mol
14,TTGAACACGTGCGTAG,-0.09 kcal/mol
15,TATAACACGTGTGGGT,0.1 kcal/mol
16,GTGTTCACGTGGTGGA,0.29 kcal/mol
17,GTAGTCACGTGGTTAG,0.03 kcal/mol
18,ACATTCACGTGTGGTT,0.1 kcal/mol
19,ATAGGCACGTGGGAAG,-0.23 kcal/mol
20,ATGTACACGTGTAAGT,0.05 kcal/mol
21,GTGTGCACGTGCGGGT,-0.01 kcal/mol
22,TGCTTCACGTGGTGAA,0.2 kcal/mol
23,ATCATCACGTGTGTAG,0.15 kcal/mol
24,AGAAGCACGTGGGGTC,-0.14 kcal/mol
25,AGCGACACGTGATGGG,0.34 kcal/mol
26,AGTAGCACGTGTAGAG,0.08 kcal/mol

row,Sequence,relative binding free energy
1,GATTACACGTGTCTGG,0.2 kcal/mol
2,GTAGACACGTGGGCAT,-0.15 kcal/mol
3,TGCATCACGTGTTTGG,0.14 kcal/mol
4,TGGTACACGTGGCTAT,-0.06 kcal/mol
5,TTAATCACGTGCGGAG,0.38 kcal/mol
6,GTCGTCACGTGGCGGT,0.16 kcal/mol
7,GGCCGCACGTGCGGGG,-0.18 kcal/mol
8,TACTTCACGTGTGAGT,0.24 kcal/mol
9,TACGTCACGTGTTTGA,0.03 kcal/mol
10,TATTTCACGTGGGAGA,0.24 kcal/mol
11,AAGCGCACGTGGCGTG,-0.19 kcal/mol
12,GTTTTCACGTGCGCGT,0.18 kcal/mol
13,GGTGTCACGTGTGCCT,0.04 kcal/mol
14,AGTAGCACGTGAGTGA,0.28 kcal/mol
15,CAGGTCACGTGTTGTG,0.06 kcal/mol
16,CATAGCACGTGATGGT,-0.01 kcal/mol
17,TAGTTCACGTGCTAGT,0.26 kcal/mol
18,TGTGTCACGTGAGAGG,0.29 kcal/mol
19,GGGTACACGTGGTGAA,0.09 kcal/mol
20,GTACGCACGTGTGGGA,-0.04 kcal/mol
21,GGTGACACGTGGGTTT,-0.02 kcal/mol
22,GGATTCACGTGGATGG,0.33 kcal/mol
23,TGTGGCACGTGGAGGA,-0.06 kcal/mol
24,AGTTTCACGTGGTACG,0.26 kcal/mol
25,TACATCACGTGGGTGA,-0.08 kcal/mol
26,ACTGGCACGTGGTCTG,-0.13 kcal/mol

row,Sequence,relative binding free energy
1,CGAGTCACGTGGTAGT,-0.05 kcal/mol
2,CTCTGCACGTGTTGTG,-0.15 kcal/mol
3,GTGGTCACGTGATCGC,0.25 kcal/mol
4,TCGTGCACGTGGATCG,0.1 kcal/mol
5,GTTAACACGTGGTAGG,0 kcal/mol
6,GTTTGCACGTGAAGAT,0.21 kcal/mol
7,AGATTCACGTGCGGTT,0.35 kcal/mol
8,TCTGTCACGTGTGGTA,0.1 kcal/mol
9,GTTAGCACGTGGGGGA,-0.09 kcal/mol
10,ACTGGCACGTGGGGTC,-0.14 kcal/mol
11,AAGGTCACGTGGGAGG,0.08 kcal/mol
12,ACTGTCACGTGGTTTT,0.21 kcal/mol
13,GTGGGCACGTGGACTA,-0.05 kcal/mol
14,TGTGGCACGTGATCAT,-0.04 kcal/mol
15,ATGCTCACGTGTAGGT,0.06 kcal/mol
16,TTTATCACGTGATAGT,0.17 kcal/mol
17,TCAATCACGTGGGGAG,0.01 kcal/mol
18,GGTATCACGTGGGTTA,0.06 kcal/mol
19,TGGTACACGTGTGAAG,0.1 kcal/mol
20,AAGCACACGTGGGTGG,-0.12 kcal/mol
21,GGAAACACGTGTAGGT,0.17 kcal/mol
22,TAGGTCACGTGGCGAT,-0.06 kcal/mol
23,TGGTGCACGTGTAGGC,0.04 kcal/mol
24,TCTGTCACGTGGTTCT,0.04 kcal/mol
25,TTATGCACGTGCTTAA,0.02 kcal/mol
26,ATCATCACGTGGGATT,0.09 kcal/mol

row,Sequence,relative binding free energy
1,TAGCTCACGTGGTAGT,0.08 kcal/mol
2,GGGAGCACGTGTAGCT,-0.19 kcal/mol
3,TGGGACACGTGGTCAT,-0.14 kcal/mol
4,TTAGGCACGTGCCGGG,-0.22 kcal/mol
5,TTTGTCACGTGCAGGT,-0.04 kcal/mol
6,AGGGTCACGTGACATG,0.09 kcal/mol
7,TGAGGCACGTGATCAT,-0.08 kcal/mol
8,AAATTCACGTGAGTGG,0.38 kcal/mol
9,TGCTGCACGTGTAAGA,0.17 kcal/mol
10,CGGCGCACGTGAGTGT,0.11 kcal/mol
11,TGGTACACGTGACAGG,0.14 kcal/mol
12,AGAGTCACGTGGCAGG,-0.01 kcal/mol
13,ATAATCACGTGTAGGA,0.16 kcal/mol
14,TGATGCACGTGATGCG,0.14 kcal/mol
15,CGTAGCACGTGGTTCT,0.03 kcal/mol
16,AGTGTCACGTGAGAAA,0.18 kcal/mol
17,ATTTACACGTGAAGTT,0.29 kcal/mol
18,GTGCACACGTGGGGCT,0.01 kcal/mol
19,TTTGACACGTGAGGCG,0.33 kcal/mol
20,TTGAACACGTGAGTGG,0.21 kcal/mol
21,GTTTGCACGTGGTATA,-0.06 kcal/mol
22,GGGCTCACGTGGGTAC,0.16 kcal/mol
23,TTGAGCACGTGTATGT,-0.09 kcal/mol
24,GCGGGCACGTGGTGGG,-0.08 kcal/mol
25,TTTATCACGTGGTCAG,0.11 kcal/mol
26,TTGAACACGTGTATTT,0.1 kcal/mol

row,Sequence,relative binding free energy
1,TCTTGCACGTGACGTG,0.17 kcal/mol
2,TGTTACACGTGTAGGA,0.06 kcal/mol
3,TTGTTCACGTGCGAGT,0.2 kcal/mol
4,AAGTACACGTGGGGCT,0 kcal/mol
5,ATTTACACGTGTGTAG,0.13 kcal/mol
6,TGTCACACGTGTGGCG,0.2 kcal/mol
7,AGGGGCACGTGCGCGA,-0.34 kcal/mol
8,TGAAGCACGTGAAGGT,0.18 kcal/mol
9,TGCGACACGTGGCGGG,-0.14 kcal/mol
10,TACGGCACGTGGGGAT,-0.24 kcal/mol
11,TAAGTCACGTGTGCGT,0.11 kcal/mol
12,ATTCTCACGTGGGTGG,0.1 kcal/mol
13,GTATACACGTGATATG,0.11 kcal/mol
14,AAGTGCACGTGATGTA,0.11 kcal/mol
15,TAGTACACGTGCAGGT,0.04 kcal/mol
16,AAGGCCACGTGGGGCG,-0.37 kcal/mol
17,TGTTTCACGTGGCGGC,0.28 kcal/mol
18,TCGGTCACGTGTGAGC,0.21 kcal/mol
19,TCGGTCACGTGTTTGA,0.11 kcal/mol
20,TTGAACACGTGTGGTG,0.03 kcal/mol
21,AGTTGCACGTGGATTA,0 kcal/mol
22,AGGAACACGTGTGTTA,0.13 kcal/mol
